Laboratory results reported in PubChem BioAssay (NCATS).
“And” between values parts separate entries of the source, which are not always exact repeats. Equal entries are not always repeated. This list was built around the results that the source calls inconclusive (neither active nor inactive); the mix of calls is not that of the screen. Where the call is inconclusive, the potency comes from a doubtful curve fit. The source made the active and inactive calls. Calls come from the whole dose curve; as a rule, active = well fitted inhibition curve with a large enough effect; inconclusive = small, poorly fitted or top-dose-only effect; inactive = flat fitted curve, though single readings scatter.

What follows are molecules tested on HEK293 (assay: Cytotoxic Profiling of Annotated Libraries Using Quantitative High-Throughput Screening (AID 1296008; note: nearly all actives have a fitted effect of over 60% in size)). Details: Five cell lines viability, CellTiter-Glo ATP luminescence, 48-72 h; max response: stronger effect = lower value.
How it was run: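 Compounds were pin-transferred onto cells and incubated 48 or 72 hr at 37 degree Celsius, 95% humidity. CellTiter-Glo was added, plates sat 10 min at room temperature, then ATP-coupled luminescence was imaged as the viability read-out.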
% is set by controls: 0 for no effect and ±100 for the full control effect; potency is the fitted concentration of half-maximal effect; tags give direction and shape of the fitted curve.

With `N#CC(=C1Nc2ccccc2S1)c1ccnc(OCc2ccc(CN3CCOCC3)cc2)n1` as the molecule, how does the Potency read?
The Potency was inconclusive: 10.5 µM [inhibitor, single point].

For `CCCCN(CCCC)CC(O)c1cc(Cl)cc2c1-c1ccc(Cl)cc1C2=Cc1ccc(Cl)cc1` (configuration not stated), which Potency is on record?
Its Potency is inconclusive: 26.4 µM [inhibitor, single point].

Which Potency does the source give for `Nc1cccc(S(=O)(=O)N2CCCN(S(=O)(=O)c3ccc4c(c3)OCCO4)CC2)c1` here?
The Potency was inconclusive: 26.4 µM [inhibitor, single point].

Which outcome does the source give for `CCCc1nc(C(C)(C)O)c(C(=O)O)n1Cc1ccc(-c2ccccc2-c2nn[nH]n2)cc1` here?
The outcome was “inactive”.

`Cn1c(CNc2ccc(C(=N)N)cc2)nc2cc(C(=O)N(CCC(=O)O)c3ccccn3)ccc21` was tested. Which Potency did it give?
The Potency was inconclusive: 29.1 µM [inhibitor, single point].

Which Potency does the source give for `N#CC[C@H](C1CCCC1)n1cc(-c2ncnc3[nH]ccc23)cn1` here?
Its Potency is inconclusive: 29.6 µM [inhibitor, single point].

Which Potency does the source give for `C[C@H]1O[C@@H](n2cc(F)c(=O)[nH]c2=O)[C@H](O)[C@H]1O` here?
Its Potency is active: 13.2 µM.

`O=C(CN1C(=O)C2(CCCC2)NC[C@H]1c1cc(F)cc(F)c1)Nc1ccc2c(c1)C[C@@]1(C2)C(=O)Nc2ncccc21` was tested. Which outcome did it give?
The outcome was “inactive”.

`CCn1c(=O)c2c(nc(C=Cc3ccc(OC)c(OC)c3)n2C)n(CC)c1=O` was tested. Which Potency did it give?
Its Potency is inconclusive: 9.35 µM [inhibitor, full curve].

Which max response does the source give for `CCOC(=O)N1c2ccc(C(F)(F)F)cc2[C@@H](N(Cc2cc(C(F)(F)F)cc(C(F)(F)F)c2)C(=O)OC)C[C@H]1CC` here?
The max response was inactive: -0.609%.

How did the Potency turn out when `CCCCCCOC(=O)N=C(N)c1ccc(NCc2nc3cc(C(=O)N(CCC(=O)OCC)c4ccccn4)ccc3n2C)cc1` was run?
Its Potency is inconclusive: 37.2 µM [inhibitor, single point].

For `COc1cc2c(cc1OC)CN(CCc1ccc(NC(=O)c3cccc4c(=O)c5cccc(OC)c5[nH]c34)cc1)CC2`, which Potency is on record?
Its Potency is active: 11.8 µM and active: 7.31 µM.

With `COc1nc(N)nc2c1ncn2[C@@H]1O[C@H](CO)[C@@H](O)[C@@H]1O` as the molecule, how does the Potency read?
Its Potency is inconclusive: 37.2 µM [inhibitor, single point].

For `Cc1nnc(C(=O)NC(C)(C)c2nc(C(=O)NCc3ccc(F)cc3)c(O)c(=O)n2C)o1`, which max response is on record?
Its max response is inactive: -1.41% and inactive: 1.54% and inactive: -3.51%.

Which Potency does the source give for `CCCCC[C@H](O)C=C[C@H]1[C@H](O)CC(=O)[C@H]1CCCCCCC(=O)O` here?
Its Potency is inconclusive: 37.2 µM [inhibitor, partial curve, poor fit].

For `Cn1cc(C[C@@H](N)C(=O)O)c2ccccc21`, which Potency is on record?
Its Potency is inconclusive: 5.75 µM [inhibitor, single point].

Which Potency does the source give for `C[C@@]12C[C@@]3(O)O[C@@H](O1)[C@]1(COC(=O)c4ccccc4)[C@@H]3C[C@@]12O[C@@H]1O[C@H](CO)[C@@H](O)[C@H](O)[C@@H]1O` here?
The Potency was inconclusive: 37.2 µM [inhibitor, single point].

For `CCC[C@H]1C[C@H](C(=O)N[C@@H]([C@@H]2O[C@@H](SC)[C@@H](O)[C@@H](O)[C@@H]2O)[C@H](C)Cl)N(C)C1`, which max response is on record?
The max response was inactive: -2.02%.

For `CC(=O)OCCN1C(=O)c2c(C)nc3ccc(S(=O)(=O)N4CCOCC4)cc3c2C1=O`, which max response is on record?
Its max response is inactive: -2.2%.

For `CC(C)OC(=O)[C@H](C)N[P@](=O)(OC[C@H]1O[C@@H](n2ccc(=O)[nH]c2=O)[C@](C)(F)[C@H]1O)Oc1ccccc1`, which Potency is on record?
Its Potency is inconclusive: 11.8 µM [inhibitor, single point].

Which Potency does the source give for `CCC(=O)O[C@]1(C(=O)CCl)[C@@H](C)C[C@H]2[C@@H]3CCC4=CC(=O)C=C[C@]4(C)[C@@]3(F)[C@@H](O)C[C@@]21C` here?
The Potency was inconclusive: 33.5 µM [inhibitor, single point].

`Cc1ccc(S(=O)(=O)N[C@@H](Cc2ccccc2)C(=O)CCl)cc1` was tested. Which Potency did it give?
The Potency was inconclusive: 26.4 µM [inhibitor, single point].

With `COCCOc1ccc2c(c1)ncn2-c1ccc2cccc(N3CCC(N)CC3)c2n1` as the molecule, how does the Potency read?
Its Potency is active: 11.8 µM.

`NC(N)=Nc1nc(CSCCC(N)=NS(N)(=O)=O)cs1` was tested. Which max response did it give?
The max response was inactive: -1.73%.

With `c1cncc(CN2CCC(n3ncc4c(N5CCOCC5)nc(-c5ccc6[nH]ccc6c5)nc43)CC2)c1` as the molecule, how does the Potency read?
The Potency was inconclusive: 2.35 µM [inhibitor, full curve, poor fit] and active: 5.8 µM.

How did the Potency turn out when `O=C(CC12CC3CC(CC(C3)C1)C2)Nc1cccc2nc(NCCNCCO)ccc12` was run?
Its Potency is inconclusive: 29.1 µM [inhibitor, single point].

With `CCC1(C)CC(=O)NC1=O` (configuration not stated) as the molecule, how does the Potency read?
The Potency was inconclusive: 11.8 µM [inhibitor, single point].

Which Potency does the source give for `COc1ccc(CC2c3cc(OC)c(OC)cc3CC[N+]2(C)CCC(=O)OCCCCCOC(=O)CC[N+]2(C)CCc3cc(OC)c(OC)cc3C2Cc2ccc(OC)c(OC)c2)cc1OC` (configuration not stated) here?
The Potency was inconclusive: 5.2 µM [inhibitor, single point].

Which max response does the source give for `OC[C@H]1O[C@@H](OCCc2ccc(O)cc2)[C@H](O)[C@@H](O)[C@H]1O` here?
Its max response is inactive: 0.731%.

For `NCCCCNCCCN`, which Potency is on record?
The Potency was inconclusive: 37.2 µM [inhibitor, single point].

For `Cc1ccc(-c2ncn(-c3ccc(Nc4nccc(-c5cccc(N6CCOCC6)c5)n4)cc3)n2)cn1`, which Potency is on record?
Its Potency is active: 0.332 µM.

With `CCC(c1ccc(O)cc1)C(CC)c1ccc(O)cc1` (configuration not stated) as the molecule, how does the max response read?
The max response was inactive: -1.04%.

`OC[C@@H](O)[C@@H](O)[C@H](O)[C@@H](O)CO` was tested. Which max response did it give?
Its max response is inactive: 2.06%.

`CC(C)c1onc(-c2c(Cl)cccc2Cl)c1COc1ccc(C=Cc2cccc(C(=O)O)c2)c(Cl)c1` was tested. Which Potency did it give?
Its Potency is inconclusive: 33.2 µM [inhibitor, single point].

Which Potency does the source give for `Cc1ccc(S(=O)(=O)OCC(=O)Nc2ccc(C(=O)O)c(O)c2)cc1` here?
Its Potency is inconclusive: 26.4 µM [inhibitor, partial curve, poor fit].

With `CCC(=O)NCC[C@@H]1CCc2ccc3c(c21)CCO3` as the molecule, how does the max response read?
The max response was inactive: -0.876%.

Which Potency does the source give for `COc1cc2c(cc1OC)[C@@H]1Cc3ccc(OC)c(OC)c3CN1CC2` here?
Its Potency is inconclusive: 23.5 µM [inhibitor, single point].
